Data published in PubChem BioAssay AID686978 (National Center for Advancing Translational Sciences (NCATS), 2013).
Values joined by “and” are separate entries in the source; they are usually repeats but may differ in a detail not shown here. Equal entries are not always repeated. In all, about 420,000 compounds went through this assay and about 64,000 (15%) were called active. Inconclusive means that the source gave no clear call. Such entries were picked first, then a sample of the others. Calls follow the shape of the dose curve; as a rule, active = well fitted inhibition curve with a large enough effect; inconclusive = small, poorly fitted or top-dose-only effect; inactive = flat fitted curve, though single readings scatter. No potency is given beside an inconclusive call; the fits are too rough.

Experiment: qHTS for Inhibitors of human tyrosyl-DNA phosphodiesterase 1 (TDP1): qHTS in cells in absence of CPT; also: nearly all actives have a fitted effect of over 55% in size
Conditions: DT40 Tdp1-/- hTDP1 cells, no CPT, ATP luminescence, 48 h; activity change, negative = growth inhibition: at 46.2 µM (top of the series)
Outline: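 Stably hTDP1-transfected Tdp1-null chicken DT40 cells were treated with library compounds minus camptothecin and grown for at least 48 hr at 37 °C, after which cellular ATP was quantified by luminescence.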
% is scaled to controls: 0 for no effect and ±100 for the full control effect; potency is read from the fitted curve at half-maximal effect; tags tell the direction and shape of the fitted curve.

Compound | Potency | activity change, negative = growth inhibition
CC(NS(=O)(=O)c1ccccc1[N+](=O)[O-])c1ccccn1 (configuration not stated) | inconclusive [inhibitor, full curve, poor fit] | –
Cc1ccc(C(=O)CSc2nc3ccccc3c(=O)[nH]2)cc1 | active: 8.2 µM | –
Cc1cccc(/C=C/c2onc(C)c2S(=O)(=O)N2CCC(C(=O)NC(C)C)CC2)c1 | – | inactive: -22.7%
Cc1ccc(-n2cc(CN3CCN(Cc4nccn4C)CC3)c(-c3ccc(F)cc3)n2)cc1 | inconclusive [inhibitor, single point] | –
O=C(NCc1ccco1)C(c1ccc(F)cc1)N(CC1CCCO1)C(=O)Cn1nnc2ccccc21 (configuration not stated) | – | inactive: -25.2%
COc1ccccc1OCC(=O)OCn1c(SC)nnc(C)c1=O | – | inactive: -7.86%
O=C(NCC1Cc2cccc(-c3cccnc3)c2O1)c1cc(-c2ccccc2)n[nH]1 (configuration not stated) | inconclusive [inhibitor, partial curve] | –
Cc1cccc(C(=O)Nc2ccc(N3CCC(CCN4CCOCC4)CC3)c(C(=O)O)c2)c1 | – | inactive: -13.1%
NNC(=O)C(Cc1c[nH]c2ccccc12)NC(=O)c1ccccc1 (configuration not stated) | inconclusive [inhibitor, single point] | –
CCCCn1c(SCc2cccnc2)nc2c1c(=O)n(C)c(=O)n2C | active: 16.4 µM | –
CN(c1ccccc1)S(=O)(=O)c1ccc(C(=O)NCC(c2ccco2)N2CCCCC2)cc1 (configuration not stated) | active: 14.6 µM | –
COc1ccc(N2C(=O)/C(=C/c3cccs3)NC2=S)cc1 | active: 5.8 µM | –
O=C(Nc1ccc(S(=O)(=O)N2CCC(c3nc4ccccc4s3)CC2)cc1)c1ccccc1F | inconclusive [inhibitor, single point] | –
CN=C1C=CC(=C(c2ccc(N(C)C)cc2)c2ccc(N(C)C)cc2)C=C1 | active: 0.211 µM | –
CCOC(=O)Cc1[nH]nc2c1C(C1C=CCCC1)C(C#N)=C(N)O2 (configuration not stated) | active: 23.1 µM | –
Cc1ccc(O)c(-c2cc(C(=O)Nc3c(C)n(C)n(-c4ccccc4)c3=O)[nH]n2)c1 | inconclusive [inhibitor, single point] | –
Cc1cccc(C(=O)NCC(=O)Nc2ccncc2)c1 | inconclusive [inhibitor, partial curve] | –
COCCCN(Cc1ccco1)C(=O)CSc1nc2ncccc2[nH]1 | – | inactive: 0.0367%
CN(C)c1nc2c(c(=O)n(C)c(=O)n2C)n1Cc1ccccc1 | – | inactive: -25.5%
COc1ccc(-c2nnc(SCC(=O)NC(C)c3ccccc3)o2)cc1 (configuration not stated) | inconclusive [inhibitor, partial curve] | –
O=C(O)CCc1ccc(S(=O)(=O)Nc2ccccc2N2CCCCC2)cc1 | inconclusive [inhibitor, single point] | –
OC[C@@H]1CN(CCN2CCOCC2)C[C@H](n2cnc3c(Nc4ccccc4)ncnc32)O1 | – | inactive: -8.15%
COCCCNC(=O)c1c(N)n(/N=C/c2cccnc2)c2nc3ccccc3nc12 | active: 6.51 µM | –
Nc1nc2c(Cl)cc(Cl)cc2s1 | inconclusive [inhibitor, partial curve] | –

Compound | Potency | activity change, negative = growth inhibition
CCOc1ccccc1NC(=O)COC(=O)c1c[nH]c2ccccc12 | inconclusive [inhibitor, partial curve, poor fit] | –
N=c1n(CCCOc2ccc(F)cc2)c2ccccc2n1CC(N)=O | inconclusive [inhibitor, single point] | –
Cc1cc(N2CCOCC2)ccc1/C=C1\NC(=O)N(Cc2ccccc2F)C1=O | inconclusive [inhibitor, single point] | –
O=C(CSCc1ccc(Cl)cc1)NCCSCc1ccco1 | inconclusive [inhibitor, single point] | –
COCCNc1nc2cc(-c3cccc(Cl)c3)sc2c(=O)n1C | inconclusive [inhibitor, single point] | –
COc1ccccc1CNc1ncnc2ccc(-c3ccc(N(C)C)cc3)cc12 | active: 13 µM | –
O=C1c2ccccc2NC(c2ccccc2)N1c1ccc(O)cc1 (configuration not stated) | – | inconclusive: -34.1% [inhibitor]
Cc1ccc(O)c(C(=O)CC(=O)c2ccccc2Cl)c1 | active: 4.61 µM | –
CCOC(=O)c1cn[nH]c1NC(=S)Nc1ccc(Cl)cc1 | inconclusive [inhibitor, partial curve, poor fit] | –
CCN(C(=O)NCc1noc2ccccc12)c1cc(C)ccc1C | inconclusive [inhibitor, single point] | –
CCOC(=O)C1(C(=O)OCC)NC(=O)CC1CC(C)C (configuration not stated) | – | inactive: 7.05%
COc1cc(OC)nc(Oc2ccccc2C(=O)Oc2cccc(C)c2)n1 | inconclusive [inhibitor, single point] | –
Cc1sc2ncn(CC(=O)NCC3COc4ccccc4O3)c(=O)c2c1S(=O)(=O)N1CCCCC1 (configuration not stated) | inconclusive [inhibitor, partial curve] | –
COc1ccccc1OCCC(=O)OCC(=O)Nc1ccc2c(c1)OCO2 | inconclusive [inhibitor, single point] | –
CC(=O)Nc1ccc(S(=O)(=O)N2CCC(C(=O)NCCc3ccc(Cl)cc3)CC2)cc1 | inconclusive [inhibitor, single point] | –
CCOC(=O)c1c(C)[nH]c(C(=O)CSc2nnc(C3CC3)n2N)c1C | inconclusive [inhibitor, partial curve, poor fit] | –
Cc1csc(NC(=O)C(Cc2ccccc2)n2cccc2)n1 (configuration not stated) | inconclusive [inhibitor, partial curve] | –
COc1cc(/C=N/NC(=O)Nc2cccc3nsnc23)cc(OC)c1OC | inconclusive [inhibitor, partial curve] | –
CCC(C)c1ccc(NC(=O)c2[nH]c(C)c(C(C)=O)c2C)cc1 (configuration not stated) | inconclusive [inhibitor, single point] | –
CC(CCc1ccccc1)NC(=O)COC(=O)c1cccc2ccccc12 (configuration not stated) | – | inactive: -3.72%
O=C(O)c1ccc(S(=O)(=O)N2CCC3(CC2)CC(=O)c2ccccc2O3)cc1 | – | inactive: -0.384%
CCC(=O)NC(=S)NNC(=O)c1ccc(NC(=O)c2ccccc2)cc1 | active: 7.31 µM | –
O=C(C[C@H]1C/C=C\C[C@H](Cc2ccc(F)cc2)C(=O)O[C@@H](c2ccccc2)CNC1=O)NCCO | inconclusive [inhibitor, partial curve] | –
CCCCCOc1ccc(C(=O)N(Cc2ccccc2)C2CCS(=O)(=O)C2)cc1 (configuration not stated) | active: 20.6 µM | –

Compound | Potency | activity change, negative = growth inhibition
Cc1ccc(-n2c(SCC(=O)NCCN3C(=O)CSC3=O)nnc2-c2cccc(C)c2)cc1 | inconclusive [inhibitor, single point] | –
CCCn1nc(C(=O)Nc2nc(-c3ccccn3)cs2)c2ccccc2c1=O | active: 2.31 µM | –
CCOC(=O)c1nc(Nc2cccc(C)c2)c2ccccc2n1 | active: 14.6 µM and active: 11.6 µM | –
CCN1CCN(c2nc(C)c3c(n2)CC(C)CC3=O)CC1 (configuration not stated) | – | inactive: -21.5%
Cc1cc(C)c(NS(=O)(=O)c2ccccc2)c(C)c1 | inconclusive [inhibitor, partial curve] | –
O=C(CNC(=O)Cc1ccc(Cl)cc1)NCc1ccco1 | – | inactive: 0.803%
CC(C)Nc1nc(NC(C)C)nc(OCCOC(=O)Nc2ccccc2)n1 | inconclusive [inhibitor, single point] | –
Cc1cccc(Cn2c(C)c(C)c3cc(C(=O)NCc4ccc(C)o4)ccc32)c1 | inconclusive [inhibitor, single point] | –
CCOc1ccc(NC(=O)CN2C(=O)C(c3ccccc3)=NC23CCCCCC3)cc1 | inconclusive [inhibitor, partial curve] | –
CCOc1ccc(N(CC(=O)Nc2cccc(F)c2)S(=O)(=O)c2c(C)noc2C)cc1 | active: 20.6 µM | –
Cc1ccc(-c2nn(-c3ccccc3)cc2C(=O)NCCCN2CCOCC2)cc1 | inconclusive [inhibitor, full curve, poor fit] | –
Cc1noc(C)c1COc1cccc(C(=O)Nc2ccc(OCc3ccccc3)cc2)c1 | inconclusive [inhibitor, single point] | –
Fc1ccccc1OCCCN1CCOCC1 | – | inactive: -9.78%
Cc1cccc(CS(=O)(=O)Cc2ccc(C(=O)NCc3ccc(Cl)cc3)o2)c1 | active: 23.1 µM | –
CC(CC(=O)OCC(=O)Nc1ccc2[nH]c(=O)[nH]c2c1)c1ccccc1 (configuration not stated) | inconclusive [inhibitor, single point] | –
COc1cccc2c(Nc3ccccc3C)cc(C)nc12 | active: 13 µM | –
N#CCSc1nnc(SCC#N)s1 | – | inactive: 5.15%
CC1CCCN(S(=O)(=O)c2ccc(C(=O)Nc3nnc(C4CC4)o3)cc2)C1 (configuration not stated) | inconclusive [inhibitor, single point] | –
Cn1nc(C(F)(F)F)c2cc(C(=O)Nc3ccc(Cl)cc3)sc21 | inconclusive [inhibitor, single point] | –
CCN(CCCNC(=O)c1nn(-c2ccc(OC)cc2)c(=O)c2c1c1ccccc1n2C)c1cccc(C)c1 | inconclusive [inhibitor, single point] | –
Cc1ccccc1NC(=O)CC1c2ccccc2CC(C)(C)N1C (configuration not stated) | inconclusive [inhibitor, single point] | –
O=C(O)c1cccc(-c2csc(C(O)c3ccccc3)n2)c1 (configuration not stated) | – | inactive: 0.881%
Cc1ccc2occ(/C=N/NC(=O)c3ccccc3C)c(=O)c2c1 | active: 14.6 µM | –
CN(c1ccc(Cl)cc1)c1cc(=O)n(C)c2ccccc12 | inconclusive [inhibitor, single point] | –
